Results on 94 sequences are retold here after the supplement of paper PMC3334620.

Over roughly 33,000 sequences, “E-score (-0.5 to 0.5)” has its median near -0.011; the highest 2% begin near 0.28. The list shows a part of the results.

The target of this assay is T1, Gcr1 (UniProt P07261).
T1 sequence: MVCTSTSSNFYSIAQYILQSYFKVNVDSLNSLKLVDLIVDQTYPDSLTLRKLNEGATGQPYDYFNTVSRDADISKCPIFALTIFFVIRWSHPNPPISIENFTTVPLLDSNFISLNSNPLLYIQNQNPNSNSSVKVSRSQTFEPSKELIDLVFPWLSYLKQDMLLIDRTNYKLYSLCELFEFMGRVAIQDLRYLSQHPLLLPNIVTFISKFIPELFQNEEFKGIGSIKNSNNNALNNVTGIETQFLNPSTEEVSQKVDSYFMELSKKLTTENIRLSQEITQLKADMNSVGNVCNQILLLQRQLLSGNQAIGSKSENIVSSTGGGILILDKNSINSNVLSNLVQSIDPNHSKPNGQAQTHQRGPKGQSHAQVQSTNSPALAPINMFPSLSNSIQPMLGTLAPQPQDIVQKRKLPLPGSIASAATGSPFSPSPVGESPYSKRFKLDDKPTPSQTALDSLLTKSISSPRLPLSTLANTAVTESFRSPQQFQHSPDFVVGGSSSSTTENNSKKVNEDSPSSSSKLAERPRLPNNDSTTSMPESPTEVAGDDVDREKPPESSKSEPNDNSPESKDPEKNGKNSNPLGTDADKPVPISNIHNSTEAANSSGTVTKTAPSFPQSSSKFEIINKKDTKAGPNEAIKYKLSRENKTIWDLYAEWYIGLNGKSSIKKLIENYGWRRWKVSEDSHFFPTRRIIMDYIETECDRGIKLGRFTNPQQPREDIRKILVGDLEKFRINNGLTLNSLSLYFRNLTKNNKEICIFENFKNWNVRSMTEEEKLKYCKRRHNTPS
Kind of assay: PBM E-score (8-mer binding enrichment) (E-score (-0.5 to 0.5)); higher = stronger / more preferred TF binding; most listed sequences are background and not binding sites. The settings on record: protein concentration: 100 nM; construct: GST-full length. Here is the method:
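Universal 'all 10-mer' protein binding microarrays (Agilent AMADID 015681) probed with GST-tagged S. cerevisiae TFs (full-length or DBD) made by in vitro transcription/translation (PURExpress), about 100-200 nM. Bound TF was detected with fluorescent anti-GST. Each ungapped 8-mer (which stands for itself and its reverse complement) is scored by the PBM enrichment score (E-score), a modified Wilcoxon-Mann-Whitney statistic from -0.5 to +0.5, computed with the Universal PBM Analysis Suite. Scale: above 0.35 generally sequence-specific binding.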
Turning to TCCAAGAA, the “PBM E-score” value is 0.0996.
Take AAGCTAAG: the “PBM E-score” value is -0.0175.
In the case of CCACGGAG it was -0.0337; in that of CACCCAGG, -0.0332.
With TTCTCAAA, the “PBM E-score” value is 0.147.
With CCAGTTTC, the “PBM E-score” value amounted to 0.0973.
The result for GAGCTGAA reads 0.0195.
The result for ATATATTG reads -0.0254.
The result for CTATTTAC reads 0.12.
Consider ATTGGGCG, for which the “PBM E-score” value amounted to 0.134.
As for AATCACGC, the “PBM E-score” value was -0.0463.
In the case of ACCGAGTA it was -0.275.
With GGCTTATA, the “PBM E-score” value came out at 0.183.
As for TCCCGCCA, the “PBM E-score” value was -0.0715.
As to CTGGTATA, the “PBM E-score” value is -0.0854.
Take TATTGCGA: the “PBM E-score” value came to 0.0177.
The result for ATACCTAT reads 0.137; that for ACTTCTCC, -0.0031.
In the case of ATAGAGGG, the “PBM E-score” value is 0.137.
In the case of CGTAGGTC, the “PBM E-score” value was -0.231.
For the sequence AACATCAA, the “PBM E-score” value is 0.0502.
Consider GCGAGTGA, for which the “PBM E-score” value was -0.218.
Regarding TGGTAAAA, the “PBM E-score” value is -0.011.
In the case of ACTAAGAT it was 0.0547; in that of CAATCCGC, -0.0651; in that of CGAGAGAC, -0.0123.
CGTCTCAC: the “PBM E-score” value is -0.157.
For the sequence AATGCAAG, the “PBM E-score” value stood at 0.0306.
For CATAGACA, the “PBM E-score” value was -0.0992.
In the case of ATTTGTAC it was -0.194.
On to GAGTCTGA, for which the “PBM E-score” value amounted to 0.0244.
TCATGTAA: the “PBM E-score” value was -0.0502.
As for AAATGCGT, the “PBM E-score” value was determined as 0.145.
Consider AGCGGCCC, for which the “PBM E-score” value is -0.07.
Take ACTACAGT: the “PBM E-score” value was -0.15.
The result for ATGTTGCC reads 0.0602.
Regarding GCGTTCAC, the “PBM E-score” value was determined as 0.00885.
In the case of CAAGCCTG it was -0.203; in that of ATGCTTAA, 0.0702.
As for CATCACGC, the “PBM E-score” value was 0.0239.
Consider AAGCTACA, for which the “PBM E-score” value turned out to be 0.0686.
In the case of CATTCCTC, the “PBM E-score” value was determined as 0.0499.
As for GACCCTTA, the “PBM E-score” value was -0.26.
The result for AAGATTAA reads 0.233; that for GAAACCTA, 0.0381; that for ACTAACAT, 0.00716.
Turning to ACCAAACG, the “PBM E-score” value turned out to be 0.093.
For the sequence ACTCCAGT, the “PBM E-score” value is 0.0907.
As to GAGTTTAC, the “PBM E-score” value was -0.0188.
The result for CTACTGTC reads -0.0659.
With GCCCTAAA, the “PBM E-score” value stood at 0.13.
Consider ACTCTTCG, for which the “PBM E-score” value is -0.23.
The result for GCCCCTTA reads -0.0366.
Regarding GCTAACTA, the “PBM E-score” value stood at 0.0833.
The result for AACGGCGT reads -0.0331; that for CGACTTAG, -0.118.
The result for AGTACGAG reads -0.158; that for GCTCTCGA, -0.123.
The result for ACATAGGA reads 0.239; that for ACTAGAGC, -0.124.
Turning to CAGCCGCC, the “PBM E-score” value worked out at 0.124.
In the case of AATATAGC, the “PBM E-score” value was determined as 0.113.
AGAAGAAA: the “PBM E-score” value was 0.0466.
GCTAGCAA: the “PBM E-score” value worked out at 0.0296.
For the sequence CGCGGGGC, the “PBM E-score” value is 0.151.
For the sequence GAGTTCGA, the “PBM E-score” value worked out at 0.102.
For AATCGGGG, the “PBM E-score” value was 0.103.
Take ATATTACC: the “PBM E-score” value was 0.0368.
With AATTATCG, the “PBM E-score” value was determined as 0.163.
With TGCGCACA, the “PBM E-score” value was 0.0348.
For TACTAGTA, the “PBM E-score” value amounted to 0.24.
In the case of GAGGTCCC, the “PBM E-score” value is -0.0211.
The result for ATTTGAAG reads 0.229; that for GACCTACC, -0.214.
As to ATACCAGC, the “PBM E-score” value was determined as 0.00966.
Regarding AGGTTGAT, the “PBM E-score” value was -0.128.
In the case of ATATCGAC, the “PBM E-score” value is -0.0467.
On to CGTATTCA, for which the “PBM E-score” value came out at 0.02.
In the case of CGATTACG, the “PBM E-score” value is -0.235.
As to AGTTTGTA, the “PBM E-score” value is 0.0172.
As to CGATCGGA, the “PBM E-score” value was 0.0565.
GAGACCAC: the “PBM E-score” value was found to be 0.00125.
Regarding CAAGAGTA, the “PBM E-score” value was -0.084.
CCGACTCA: the “PBM E-score” value is -0.0878.
In the case of AAAGCGGG it was -0.0519; in that of GCAACGAC, -0.189; in that of CTCATGTA, 0.017.
Take AATCGAAA: the “PBM E-score” value is -0.0237.
As to AGCAGATG, the “PBM E-score” value was -0.0362.
For the sequence CCATTTCA, the “PBM E-score” value was 0.0258.
The result for CGCGACTC reads -0.132.
Turning to TATAGAGA, the “PBM E-score” value was -0.121.
Turning to CGTGACAC, the “PBM E-score” value was -0.116.
The result for CTCACCCA reads -0.012.
